According to PubChem BioAssay AID360 (National Center for Advancing Translational Sciences (NCATS), 2006):
Out of some 48,000 compounds screened, about 550 (1.1%) were called active. About 4% were inconclusive and are not listed. No stated cut-off is given here; in the data, active means potency below about 15 µM; inconclusive means mostly about 16 µM to 33 µM; inactive means weaker than that. The list shows a part of the results.

Target: Lysosomal acid glucosylceramidase (Homo sapiens) (UniProt P04062)
Assay: Glucocerebrosidase;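 further: the screen sought inhibitors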
Conditions: purified enzyme, resorufin glucoside fluorescence (screen aimed at inhibitors), 20 min
In short: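 Normal human glucocerebrosidase (0.2 nM final) was assayed with resorufin β-D-glucopyranoside (30 uM final) in 50mM citric acid/KH2PO4, 10mM sodium taurocholate, 0.01% tween-20, pH 5.9. Compounds were titrated; fluorescence (Ex 548, Em 600) read after 20 min at RT.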
Potency means the concentration at half of the fitted maximal effect.

UniProt P04062, sequence (P04062 whole entry, looked up): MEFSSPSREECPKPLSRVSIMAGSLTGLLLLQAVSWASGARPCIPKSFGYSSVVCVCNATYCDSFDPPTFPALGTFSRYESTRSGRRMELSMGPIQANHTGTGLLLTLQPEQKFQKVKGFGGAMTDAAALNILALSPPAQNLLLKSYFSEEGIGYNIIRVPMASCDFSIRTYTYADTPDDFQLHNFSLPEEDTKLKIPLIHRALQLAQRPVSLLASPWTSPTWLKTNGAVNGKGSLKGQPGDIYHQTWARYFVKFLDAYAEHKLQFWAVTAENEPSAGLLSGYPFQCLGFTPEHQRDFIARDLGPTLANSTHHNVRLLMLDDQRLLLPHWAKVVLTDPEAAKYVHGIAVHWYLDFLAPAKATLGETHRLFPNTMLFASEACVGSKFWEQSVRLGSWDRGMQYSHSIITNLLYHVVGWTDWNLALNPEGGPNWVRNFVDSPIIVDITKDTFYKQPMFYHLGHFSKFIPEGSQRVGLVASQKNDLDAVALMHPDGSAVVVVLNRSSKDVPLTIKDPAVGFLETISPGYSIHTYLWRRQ

Potency, inactive:
CCCCn1c(SCC(=O)Nc2cccc(OC)c2)nc2ccc(N3CCOCC3)cc2c1=O > 76.9 µM, O=C(CSc1nc(-c2ccc(F)cc2)cs1)N1CCN(C(=O)c2ccco2)CC1 > 76.9 µM, Cc1cc(C)nc(SC2=CS(=O)(=O)c3ccccc32)n1 > 76.9 µM, CC(=O)NC(Cc1ccccc1F)C(=O)NC1CCN(C(=O)c2cnccn2)CC1 (stereo not given) > 76.9 µM, COc1ccccc1NC(=O)c1sc2nc(-c3ccco3)ccc2c1N > 76.9 µM, COc1cc(C)nc(NS(=O)(=O)c2ccc(C)cc2)n1 > 76.9 µM, COC(=O)c1ccc2c(=O)n(CC3CCCO3)c(=S)[nH]c2c1 (stereo not given) > 76.9 µM, CCn1c(Cc2ccccc2)nnc1SCC(=O)Nc1ccc(N2CCOCC2)c(Cl)c1 > 76.9 µM, O=C(CCn1c(=O)sc2ccccc21)NCCCn1ccnc1 > 76.9 µM, Cc1ccc(-n2nc3c(c2NC(=O)c2ccc(Br)o2)CSC3)c(C)c1 > 76.9 µM, O=C(Cn1nc(Cl)nc1Cl)Nc1ccccc1 > 76.9 µM, COc1cc(NC(=O)Nc2ccccc2OC)c(OC)cc1NC(=O)CN1CCCCC1 > 76.9 µM, N=c1c(C(=O)NC2CCCC2)cc2c(=O)n3ccccc3nc2n1CCN1CCOCC1 > 76.9 µM, C=CCn1c(SCC(=O)Nc2ccccc2OC)nnc1-c1ccccn1 > 76.9 µM, COC(=O)Cc1csc(Nc2c(C)n(C)n(-c3ccccc3)c2=O)n1 > 76.9 µM, CCCCn1nnnc1NCc1ccc(N2CCCC2)cc1 > 76.9 µM, Cc1ccc(C)n1CCN1CCN(CC(=O)Nc2ccc(S(N)(=O)=O)cc2)CC1 > 76.9 µM, COc1ccc(OCc2cccc(C(=O)O)c2)cc1 > 76.9 µM, CC(C)COCC1CC2(CC(C)C(=O)CC2=O)C(=O)O1 (stereo not given) > 76.9 µM, CCOc1ccccc1C1CC(=O)Nc2cc3c(cc21)OCCO3 (stereo not given) > 76.9 µM, COCCCN1CN(S(=O)(=O)c2ccc(Cl)cc2)c2nc3ccccc3nc21, CSc1nc(C)cc(Oc2ccc(=O)n(C)n2)n1 > 76.9 µM, CCS(=O)(=O)N1CCCC(C(=O)NCCCOC)C1 (stereo not given) > 76.9 µM, CCOC(=O)c1cnc(SCc2ccc(C)cc2)nc1N > 76.9 µM, CCCCn1c(SCc2nnc(-c3ccccc3)o2)nc2c1c(=O)n(C)c(=O)n2C > 76.9 µM, CN(C)c1ccc(/C=C/c2cc[n+]([O-])cc2)cc1 > 76.9 µM, O=C1CCc2cc(S(=O)(=O)NCCC(=O)N3CCN(c4cccc(Cl)c4)CC3)ccc2N1 > 76.9 µM, COc1ccc(CN2CC(C(=O)NCCCN3CCN(C)CC3)CC2=O)cc1 (stereo not given) > 76.9 µM, CCn1c(N)c(C(=O)NC)sc1=S > 76.9 µM, O=C(NC1CCCC1)c1cccnc1N1CCCCCC1 > 76.9 µM, Cc1ccc(N=C(c2cccs2)N2CCOCC2)cc1 > 76.9 µM, CCN(CC)S(=O)(=O)c1cccc(-c2nnc(SCCOc3ccc(Cl)cc3)o2)c1 > 76.9 µM, C=CCOC(=O)Nc1ccc(Cl)cc1NC(=O)OCC=C > 76.9 µM, COC(=O)C1C(=O)C2=C(CC1C)NC(=O)CC2c1ccc(O)c(OC)c1 (stereo not given) > 76.9 µM, COC(=O)NC1CSCC1OC(=O)CCN1C(=O)c2ccccc2C1=O (stereo not given) > 76.9 µM, O=C(CN1CCN(C(=O)c2ccco2)CC1)Nc1ccc(Cl)c(C(F)(F)F)c1 > 76.9 µM, COc1ccc(C)cc1NC(=O)CN(C)S(=O)(=O)c1cccs1 > 76.9 µM, CCn1c(N)c(C(=O)NCc2cccnc2)sc1=S > 76.9 µM, CC1(C)CC(=O)C2=C(C1)NCN(CCCN1CCOCC1)C2 > 76.9 µM, COc1ccc(S(=O)(=O)N2CCCC2C(=O)Nn2cnnc2)cc1 (stereo not given) > 76.9 µM, CCOc1cc(NC(=O)c2ccco2)c(OCC)cc1NC(=O)Cc1cccc(OC)c1, O=C(NCC(c1cccnc1)N1CCN(c2ccccc2F)CC1)C1CCCCC1 (stereo not given) > 76.9 µM, COc1cccc(CNc2nn[nH]n2)c1OC > 76.9 µM, COc1ccc(OCc2ccc(C(=O)O)cc2)cc1 > 76.9 µM, O=C(Nc1ccc2c(c1)OCCO2)c1cccnc1 > 76.9 µM
